Test results taken from PubChem BioAssay AID1963447 (Molecular Pharmacology Branch, DTP, NCI, 2024).
Certain results were filed several times, with different values. The other results are left out here. The source may hold further records. Results that share an entry are repeated measurements across runs, samples, wells, individuals or studies. Additions like (4×) say how often a value occurs here. A date in brackets names the month of the test.

Test system: 885512-296-R-J2-PDC complex spheroid growth, % test/control
Experiment: Anticancer human tumor 885512-296-R-J2-PDC patient-derived breast carcinoma cell line growth inhibition [Asc]
Conditions: for viability, T/C: stronger effect = lower value
Procedure: Multicellular complex tumor spheroid response to apoptosis pathway targeting inhibitors Alrizomadlin, Pelcitoclax, and Dasminapant in combination with a variety of drugs and investigational agents in selected tumor cell lines
The MDM2 inhibitor alrizomadlin, the Bcl-2/Bcl-xL inhibitor pelcitoclax, and the IAPs inhibitor dasminapant were evaluated both individually and in combination with standard of care and investigational anticancer small molecules within a complex spheroid model of solid tumors. . Complex spheroids include a stromal component modeled by human endothelial cells (HUVEC) and fibroblasts modeled by human mesenchymal stem cells (MSCs). The concentration ranges selected for each drug and investigational agent were based upon clinically achievable concentrations if the clinical Cmax of the agent was known.
Compounds. The drugs and investigational agents: alrizomadlin (APG-115; NSC831270), pelcitoclax (APG-1252; NSC835773), dasminapant (APG-1387;NSC834197), TAK-243 (NSC785004), copanlisib (NSC809693), olaparib (NSC753686), talazoparib (NSC767125), cobimetinib (NSC 768068), eltanexor (KPT-8602, NSC 794443), abemaciclib (NSC 768073), sotorasib (NSC818433), adagrasib (NSC 831453), MRTX-1133 (NSC 836407), Iadademestat (ORY1001, NSC 806812), and RMC-4630 (NSC839698), were obtained from the NCI Developmental Therapeutics Program Chemical Repository. The FDA-approved anticancer drug set is available from the Developmental Therapeutics Program at https://dtp.cancer.gov/organization/dscb/obtaining/available plates.htm. […] The stock solutions were prepared in dimethyl sulfoxide (DMSO, Sigma-Aldrich, St. Louis, MO, cat. D2650) at 800-fold the tested concentration and stored at -70 degrees C prior to their use. All drugs and investigational agents were tested over a range starting from a high concentration at or near the clinical Cmax and decreasing in half-log increments. If the clinical Cmax for an agent had not been determined, the highest concentration tested was 10 microM.
The patient-derived cancer (PDC) cell lines include five colon adenocarcinomas: 186277-243-T-J2-PDC, 616215-338-R-J1-PDC, 439559-082-T-J2-PDC, 463943-066-T-J2-PDC, and 519858-162-T-J1-PDC; three pancreatic carcinomas: 323965-272-R-J2-PDC, 521955-158-R6-J3-PDC, and 521955-158-R2-J5-PDC; two uterine sarcomas: 327498-152-R-J2-PDC and 993429-296-R-J1-PDC; two rhabdomyosarcomas: 755483-174-R-J1-PDC and 772245-204-R-J1-PDC; two soft tissue sarcomas: 126254-015-R-J1-PDC and 494315-158-R-J1-PDC; two malignant fibrous histiocytomas: 317291-083-R-J1-PDC and 596521-263-R-J1-PDC; two breast carcinomas: 171881-019-R-J1-PDC and 885512-296-R-J2-PDC; and one ovarian carcinoma: 6556581-035-R-J-PDC were obtained from the NCI PDMR, (https://pdmr.cancer.gov). The established cell lines HSSY-2 synovial sarcoma (RRID:CVCL 8719), SYO-1 synovial sarcoma (RRID:CVCL_7146), MPNST malignant peripheral neural sheath tumor were obtained from the Sloan Kettering Institute. The following established cell lines were purchased from the American Type Culture Collection (ATCC, Manassas, VA), Sor the received from the NCI repository:, PANC-1 pancreatic carcinoma (CRL-1469, RRID:CVCL_0480), OVCAR-5 ovarian carcinoma (RRID:CVCL_1628), OVCAR-8 ovarian carcinoma (RRID:CVCL_1629), , MCF-7 breast carcinoma (CRL-12584, RRID:CVCL_0031), MDA-MB-231 breast carcinoma (CRL-12532, RRID:CVCL_0062), NCI-H1876 small cell lung carcinoma (CRL-5902, RRID:CVCL_1503), NCI-H510A small cell lung carcinoma (HTB-184, RRID:CVCL_1565), NCI-H1417 (CRL-5869, RRID:CVCL_1469), and NCI-H196 small cell lung carcinoma (CRL-5823, RRID:CVCL_1509). Dr. Peter Houghton (Greehey Children's Cancer Research Institute, University of Texas Health Science Center, San Antonio, TX) provided Rh-18 rhabdomyosarcoma (RRID:CVCL_1659). Pooled donor human umbilical vein endothelial cells (HUVEC, Lonza, cat. CC-2519) and human mesenchymal stem cells (hMSC, Lonza, cat. PT-2501) were purchased from Lonza (Walkersville, MD).
Cell Culture. […]
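Note: spheroids exposed to compounds for seven days.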
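Throughout, for viability, T/C: 100% = DMSO vehicle control wells.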

`CNC(C)C(=O)NC1CN(S(=O)(=O)c2cccc(S(=O)(=O)N3CCC4CCC(C(=O)NC(c5ccccc5)c5ccccc5)N4C(=O)C(NC(=O)C(C)NC)C3)c2)CCC2CCC(C(=O)NC(c3ccccc3)c3ccccc3)N2C1=O` (centres undefined) was tested, and the viability, T/C (compound alone 0.01 µM) was 93%, 69.2% [2022-09] and 74.7, 90.3, 87.1, 94.6, 85.3, 77.3, 70, 89.3, 70.2, 93.3, 81.3, 91.2, 88% [2022-10], the viability, T/C (compound alone 0.0316 µM) was 103%, 83.9% [2022-09] and 99, 92.5, 93.7, 101 (2×), 80.8, 85.6, 87.2, 95.5, 77.9, 99.5, 97.2, 110% [2022-10] and the viability, T/C (compound alone 0.1 µM) was 113%, 103% [2022-09] and 95.9, 98.2, 99.4, 106, 100, 101, 78.5, 99.7, 84.5, 93.7, 98.7, 96.4, 121% [2022-10]. The viability, T/C (compound alone 0.316 µM) was 125%, 112% [2022-09] and 108 (2×), 94.1, 107, 109, 101, 103, 95.5, 106 (2×), 114, 111, 96.8% [2022-10] and the viability, T/C (compound alone 1 µM) was 97.1%, 97.7% [2022-09] and 106 (2×), 87.3, 105, 104, 83.6, 103, 88, 99.1, 101, 99.2, 109, 115% [2022-10].
In the case of `Cc1c(S(C)(=O)=O)c(-c2cc(F)cc(N3CCN(c4ccc(NS(=O)(=O)c5ccc(NC(CCN6CCC(C(=O)OCCCP(=O)(O)O)CC6)CSc6ccccc6)c(S(=O)(=O)C(F)(F)F)c5)cc4)CC3)c2)c(-c2ccc(Cl)cc2)n1C(C)C` (centres undefined), the viability, T/C (compound alone 3.16 µM) is reported as 98.6, 97.7, 93.6, 100 (3×), 96.9, 97.1, 103, 115, 110, 93, 91.6, 88.8%.
In the case of `CCN1C(C(=O)NC23CCC(C(=O)O)(CC2)CC3)C(c2cccc(Cl)c2F)C2(C(=O)Nc3cc(Cl)ccc32)C12CCCCC2` (centres undefined), the viability, T/C (compound alone 0.03 µM) is reported as 91, 93.3, 96.2, 87.2, 101, 92.4, 76.4, 95.9, 93.1, 77.9, 94.1, 92.9, 111, 91.8% [2022-09] and 91.6% [2022-10], the viability, T/C (compound alone 0.3 µM) is reported as 79, 105, 86.5, 68.6, 89.5, 87.2, 75.7, 99, 77.3, 104, 88.9, 89.3, 82.1, 86% [2022-09] and 82.5% [2022-10] and the IC50 (compound alone, run of 09/27/2022) is reported as 2.14 µM, 2.64 µM, 2.37 µM, > 3 µM, 2.73 µM, 2.05 µM, 1.99 µM, 2.4 µM, 2.58 µM, 2.41 µM.
